Screen size: about 46,000 compounds; about 60 (0.1%) were called active. Not shown: some 3% with an inconclusive outcome. The call rests on the fitted dose curve; in most records, active means well fitted inhibition curve with a large enough effect; inconclusive means small, poorly fitted or top-dose-only effect; inactive means no such curve, though single readings can be large or run the other way. The list shows a part of the results.
Experiment: Primary qHTS assay for Inhibitors of ovarian cancer metastasis using an organotypic tumor microenvironment (TME) model. Further: nearly all actives have a fitted effect of over 65% in size.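 On activity change, negative = inhibition: plate controls were DMSO wells for no effect and tomatine positive control wells for full effect.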
Conditions: SKOV3ip1-GFP adhesion/invasion on 3D omental model, fluorescence; series mostly up to 45.8 µM; activity change, negative = inhibition: at the top concentration
Method in brief: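 A 3D layer of primary human omental fibroblasts, mesothelial cells, fibronectin and collagen I, grown 48 hr, received SKOV3ip1-GFP cells in serum-free medium plus compounds at 0.36-46 umol/L. After 2 hr RT and 16 hr 37 C, fixed adherent GFP cells were counted; normalized to DMSO and tomatine.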

Activity change, negative = inhibition, inactive:
Cc1cc(NC(=O)COc2ccccc2)cc(-c2nc3ccccc3o2)c1O 15%
Cn1ncc(C(=O)N2CCN(c3ccc(F)cc3)CC2)c1C1CCN(C(=O)OC(C)(C)C)CC1 -2.61%
CCCN1C(=O)C(Cc2nc3ccccc3c(=O)n2-c2cccc(C)c2)c2ccccc21 (configuration not stated) 0.796%
CCCn1c(-c2cccc(Br)c2)nc2ccccc21 0.175%
CCn1c(-c2ccc(S(=O)(=O)N3CCOCC3)cc2)csc1=Nc1ccc(C)c(Cl)c1 1.99%
CC(=O)Nc1cc(-c2nc3ccccc3s2)ccc1C -9.7%
Cc1ccc(C2=CC(c3c(F)cccc3Cl)n3ncnc3N2)cc1C (configuration not stated) 3.92%
COc1ccc(C)cc1NC(=O)c1ccc2c(c1)CCN2S(=O)(=O)c1ccc(Cl)cc1 11.6%
COc1ccc(CNc2nc3c(c(=O)n(C)c(=O)n3C)n2Cc2ccccc2Cl)cc1 8.78%
Cc1ccc(C)c(CN2CCC(CNC(=O)c3cc4ccc5cccnc5c4[nH]3)CC2)c1 -14.3%
Cc1cccc(-c2noc(-c3ccc(N4CCN(C)CC4)c([N+](=O)[O-])c3)n2)c1 8.95%
CCOC(=O)c1ccc(CN(Cc2ccccc2C)S(=O)(=O)c2ccc(C(C)(C)C)cc2)cc1 0.627%
Cc1ccc(C(=O)n2nc(C)c(S(=O)(=O)N3CCCCCC3)c2C)cc1 7.81%
CC1CCN(S(=O)(=O)c2ccc3c(c2)CCC(=O)N3CC(=O)Nc2cccc(C#N)c2)CC1 8.73%
CCCCNC(=O)CSc1nnc(C)c2c(C)n(-c3ccccc3)nc12 -5.42%
Cc1ccc(Cn2c(C)c(CNCCCc3ccccc3)c(C(=O)O)c2C)cc1 -1.85%
O=C(NCc1ccccc1)c1ccc(CSc2nc3cccnc3n2Cc2ccccc2F)cc1 -21.9%
Cc1ccc(C2=NN(CC(=O)NCCN(CC(C)C)CC(C)C)C(=O)CC2)cc1 3.19%
CCC1CN(C(=O)N2CCC(C(=O)NCc3ccccc3C)CC2)c2ccccc2O1 (configuration not stated) 4.23%
Cc1ccc(-c2noc(CNC(=O)c3ccccc3)n2)cc1 12%
Cc1ccc(-c2cc3c(n2-c2ccc(C)cc2)CC(C)(C)CC3=O)cc1 0.363%
COc1ccc(OCC(=O)Nc2cccc(-c3nc4ccccc4s3)c2C)cc1 9.71%

outcome, inactive:
CC(C)(C)OC(=O)N1CCC(c2nnc(SCc3ccccc3)o2)CC1
O=C(CSc1nnc2[nH]c(=O)cc(-c3ccccc3)n12)Nc1ccc(F)cc1F
Cc1cc(C)cc(NC(=O)C2CCCN2S(=O)(=O)c2cccc3nsnc23)c1 (configuration not stated)
COc1cccc(C2C(C(=O)Nc3ccccc3)=C(C)Nc3nc(-c4ccccc4)nn32)c1OC (configuration not stated)
CC(C)NC(=O)C1CCN(c2nc3ccccc3nc2C(F)(F)F)CC1
